# In all, about 380,000 compounds went through this assay and about 170 (0.045%) were called active. This list was built around the results that the source calls inconclusive (neither active nor inactive); the mix of calls is not that of the screen. Calls follow the shape of the dose curve; as a rule, active = well fitted inhibition curve with a large enough effect; inconclusive = small, poorly fitted or top-dose-only effect; inactive = no such curve, though single readings can be large or run the other way. No potency is given beside an inconclusive call; the fits are too rough.
# Target: Phosphoglycerate kinase, glycosomal (Trypanosoma brucei brucei) (UniProt P07378)
# Assay: qHTS Assay to Find Inhibitors of Phosphoglycerate Kinase; also: nearly all actives have a fitted effect of over 60% in size
# Conditions: PGK/GAPDH coupled, Kinase-Glo luminescence, 60 min; series mostly up to 57.5 µM; activity change, negative = inhibition: at the top concentration
# Outline: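 Luminescent ATP detection (Kinase-Glo Plus) follows a 60-minute room-temperature incubation, with wells lacking PGK as controls. Buffer: 100 mM TEA (pH 7.6), 5 mM MgCl2, 0.01% Tween-20. Coupling enzyme GAPDH (100 nM final) supplies unstable 1,3-BPG in-well.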
# % is scaled to controls: 0 for no effect and ±100 for the full control effect; potency is read from the fitted curve at half-maximal effect; tags tell the direction and shape of the fitted curve.
Compound,"activity change, negative = inhibition",Potency,outcome
CC(C)(C)Sc1ccc2nc3c(n2c1)CCCC3,inactive: 2.94%,–,–
CS(=O)(=O)N1Cc2ccccc2CC1C(=O)O (stereo unspecified),inactive: -3.11%,–,–
CCOc1cc2c(C#N)c(N3CCCCC3)nc(N)c2c(N)n1,inactive: -0.648%,–,–
COc1ccc2c(c1)[nH]c1c(=O)n(CCCn3ccnc3)cnc12,–,"inconclusive [inhibitor, partial curve, poor fit]",–
Cc1cccc(Nc2nc(N3CCOCC3)nc(N3CCOCC3)n2)c1,–,–,inactive
Cc1cccn2cc(-c3c[nH]c4ccccc34)nc12,–,"inconclusive [inhibitor, partial curve, poor fit]",–
Cc1ccc(CN(CC(=O)N/N=C/c2ccccc2[N+](=O)[O-])S(=O)(=O)c2ccc(C)cc2)cc1,inactive: -3.06%,–,–
CC(C)Nc1ccc(-c2nc(-c3ccncc3)no2)cc1[N+](=O)[O-],–,"inconclusive [inhibitor, partial curve, poor fit]",–
CCN(CC(=O)Nc1ccccc1OC)C(=O)c1cccc(-n2cccc2)c1,–,–,inactive
CCOc1cc(/C=N/NC(=O)C(=O)N/N=C/c2ccc(O)c(OCC)c2)ccc1O,inactive: -0.127%,–,–
Cc1cc(C)nc(Sc2nc(Nc3ccccc3)nc(Sc3nc(C)cc(C)n3)n2)n1,inactive: 11.4%,–,–
Cc1cc(C)c2c(N)c(C(=O)c3ccccc3Cl)sc2n1,inactive: 5.09%,–,–
CC(CCC(=O)O)(c1ccc(O)cc1)c1ccc(O)cc1,inactive: -0.893%,–,–
CCOc1ccc(/C=N/NC(=O)c2[nH]ncc2Br)c(O)c1,–,"inconclusive [inhibitor, partial curve, poor fit]",–
O=C(NNC(=O)c1ccccc1F)c1cccc(-n2cccc2)c1,–,"inconclusive [inhibitor, partial curve, poor fit]",–
CCc1nnc(NC(=O)c2cc(-c3ccco3)nc3ccccc23)s1,–,"inconclusive [inhibitor, partial curve, poor fit]",–
CCOc1ccc(OCC(=O)Nc2nccs2)cc1,–,"inconclusive [inhibitor, partial curve]",–
COc1ccc(S(=O)(=O)n2nc(-c3ccc(Cl)cc3)cc2N)cc1,inactive: -1.89%,–,–
COc1ccc(OC)c(-c2nc(C(=O)NC3CCN(Cc4ccccc4)CC3)cc3c2[nH]c2ccccc23)c1,inactive: -5.03%,–,–
Cc1cc(NS(=O)(=O)c2ccc(NC(=O)COc3ccc(Cl)cc3)cc2)no1,inactive: 6.58%,–,–
CCN1/C(=C/c2ccc3ccccc3[n+]2CC)C=Cc2ccccc21,–,"inconclusive [inhibitor, partial curve, poor fit]",–
CC(=O)Nc1ccc(C(=O)Cn2nnc3ccccc3c2=O)cc1,–,"inconclusive [inhibitor, single point]",–
C=CC1=C(C(=O)O)N2C(=O)[C@@H](NC(=O)/C(=N\OCC(=O)O)c3csc(N)n3)[C@H]2SC1,–,"inconclusive [inhibitor, full curve, poor fit]",–

Compound,"activity change, negative = inhibition",Potency,outcome
CC(C)(C)c1ccc(C(=O)O/N=C(\N)c2ccccn2)cc1,inactive: -9.76%,–,–
Cc1ccc(C(C)C)c(OCc2ccc(C(=O)N/N=C/c3ccc(C(=O)O)cc3)cc2)c1,–,"inconclusive [inhibitor, partial curve]",–
O=C1C(=Cc2ccco2)CCCC1=Cc1ccco1,–,"inconclusive [inhibitor, single point]",–
Cc1cccc(/C(N)=N/OC(=O)CCCc2ccccc2)c1,inactive: 0.4%,–,–
Cc1cccc(-c2nc(SCC(=O)Nc3cccc(C(F)(F)F)c3)n3[nH]c(=O)cc3n2)c1,–,"inconclusive [inhibitor, single point]",–
Cc1nn(Cc2ccccc2Cl)c(C)c1C(=O)NCC(c1cccs1)N1CCOCC1 (stereo unspecified),inactive: 0.886%,–,–
CCOc1ccc(Nc2ccc(N)c(S(=O)(=O)O)c2)cc1,–,"inconclusive [inhibitor, single point]",–
O=C(O)c1ccccc1/C=N/NC(=O)c1cc(-c2ccco2)nc2ccccc12,–,"inconclusive [inhibitor, single point]",–
CCOC(=O)c1c(-c2ccc3ccccc3c2)csc1NC(=O)CCCC(=O)O,–,"inconclusive [inhibitor, single point]",–
CNc1ccc(/C=C(\CCC(=O)O)c2nc3ccccc3s2)cc1[N+](=O)[O-],–,"inconclusive [inhibitor, partial curve]",–
CCc1ccc(/C=C2/SC(=S)N(CCC(=O)Nc3cccc(C(=O)O)c3)C2=O)cc1,inactive: -6.76%,–,–
C=CCn1c(SCC(=O)O)nnc1-c1cccs1,inactive: 9.78%,–,–
Cc1cc2nc3c(=O)[nH]c(=O)[nH]c3nc2c([N+](=O)[O-])c1N,–,"inconclusive [inhibitor, partial curve]",–
CN(C)c1ccc(/C=N/NC(=O)c2ccc3c(c2)OCCO3)cc1,inactive: -7.31%,–,–
CC1(OC(=O)c2cccs2)C(=O)C=C2C=C3CCCN3C=C2C1=O (stereo unspecified),–,"inconclusive [inhibitor, partial curve, poor fit]",–
O=C(CSc1nc(NS(=O)(=O)c2ccccc2)cc(=O)[nH]1)Nc1ccc(Cl)cc1,–,"inconclusive [inhibitor, single point]",–
COc1cccc(/C=N/NC(=O)c2[nH]nc3c2CCc2ccccc2-3)c1O,–,"inconclusive [inhibitor, single point]",–
Oc1c(C(Nc2ccccn2)c2ccccn2)ccc2cccnc12 (stereo unspecified),inactive: 0.848%,–,–
COc1ccc(C(CC(=O)N2CCCCC2)c2c(OC)cc(OC)c3c(-c4ccccc4)cc(=O)oc23)cc1 (stereo unspecified),–,"inconclusive [inhibitor, partial curve, poor fit]",–
Cc1[nH]n(C(N)=S)c(=O)c1N=Nc1ccc([N+](=O)[O-])cc1Cl,–,"inconclusive [inhibitor, single point]",–
O=C(O)c1ccccc1NS(=O)(=O)c1ccc(NN=Cc2cccc(Cl)c2)c([N+](=O)[O-])c1,–,"inconclusive [inhibitor, single point]",–
COc1ccccc1C1=CC(=O)C[C@H](c2ccc(Cl)cc2)C1,inactive: -9.84%,–,–
COc1ccc(C(=O)CSc2nnc(-c3ccco3)c(-c3ccco3)n2)cc1,–,"inconclusive [inhibitor, partial curve]",–

# Reference: PubChem BioAssay AID602233 (National Center for Advancing Translational Sciences (NCATS), 2012)
